Experimental data taken from PubChem BioAssay AID2100 (National Center for Advancing Translational Sciences (NCATS), 2009).
Screen size: about 300,000 compounds; about 1,200 (0.4%) were called active. This list was built around the results that the source calls inconclusive (neither active nor inactive); the mix of calls is not that of the screen. Calls follow the shape of the dose curve; as a rule, active = well fitted inhibition curve with a large enough effect; inconclusive = small, poorly fitted or top-dose-only effect, or another doubt; inactive = no such curve, though single readings can be large or run the other way. Where the call is inconclusive, the potency comes from a doubtful curve fit.

Molecular target: Lysosomal alpha-glucosidase (Homo sapiens) (UniProt P10253)
Test: qHTS Assay for Inhibitors and Activators of Human alpha-Glucosidase Cleavage of Glycogen;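 as to activity change, negative = inhibition: 0% = full enzyme reaction and -100% = no-enzyme basal signal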
Details: recombinant GAA, glycogen substrate, Amplex Red glucose oxidase fluorescence; activity change, negative = inhibition: at 76.4 µM (top of the series) unless noted
Outline: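 Recombinant human alpha-glucosidase (4 nM final) hydrolysed bovine liver glycogen (30 ug) for 40 min at 37 C in pH 5.0 citrate/phosphate with 0.01% Tween-20. Released glucose detected by glucose oxidase/Amplex Red, Ex 573/Em 610 nm. Compounds up to 77 uM; AC50 from Hill fits.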
Potency is read from the fitted curve at half-maximal effect.

| Compound | activity change, negative = inhibition | Potency |
| --- | --- | --- |
| NC(=O)NC(c1ccccc1)c1cccc2ccccc12 (stereo not given) | inconclusive: 31.4% [activator] | – |
| CCC1=NC(c2ccc(OC)cc2)N(O)C1(C)C (stereo not given) | – | inconclusive: 19.8 µM [inhibitor, partial curve] |
| COc1cc(-c2n[nH]c(=S)n2-c2ccc(C)cc2)cc(OC)c1OC | – | inconclusive: 11.2 µM [inhibitor, partial curve] |
| CC(C)C(C)(C#N)NC(=O)CSc1nc2scc(-c3ccco3)c2c(=O)n1-c1ccccc1 (stereo not given) | inactive: 0.0041% | – |
| CCOc1ccc(C2Nc3c(C)cccc3-c3cc(C)nn32)cc1 (stereo not given) | – | inconclusive: 28.2 µM [inhibitor, partial curve] |
| Cc1ccc(-c2nc3ccccn3c2Nc2ccccc2C)s1 | – | inconclusive: 20 µM [inhibitor, partial curve] |
| Cc1ccc(C)c(NC(=S)NNC(=O)c2ccco2)c1 | – | active: 22.4 µM |
| COC(=O)C1=C(CS(=O)(=O)c2cc(OC)ccc2OC)NC(=O)NC1c1ccc(O)c(OC)c1 (stereo not given) | – | inconclusive: 39.8 µM [inhibitor, single point] |
| COCCN1CCc2nc(SCC(=O)Nc3ccc(C)c(Cl)c3)[nH]c(=O)c2C1 | inactive: 4.23% [at 76.3 µM] | – |
| CCc1c(C)sc(NC(=S)Nc2cccnc2)c1C(=O)OC | – | inconclusive: 39.5 µM [inhibitor, single point] |
| COCCCNC(=S)NNC(=O)c1cc(-c2cccnc2)nc2ccccc12 | – | inconclusive: 50.1 µM [inhibitor, single point] |
| CCOc1nc(SC(C(C)=O)C(=O)Nc2ccccc2)nc(N(C)C)n1 (stereo not given) | – | inconclusive: 39.5 µM [inhibitor, single point] |
| O=C1CC(c2ccc(OCCCCCOc3ccc(C4CC(=O)NC4=O)cc3)cc2)C(=O)N1 (stereo not given) | inactive: 0.106% | – |
| Cc1[nH]nc(-c2ccc(O)cc2O)c1-c1ccc(Cl)cc1 | – | inconclusive: 39.8 µM [inhibitor, partial curve] |
| CC(C)N=c1scc(-c2cccs2)n1/N=C/c1ccc(O)c(O)c1O | – | inconclusive: 6.31 µM [inhibitor, full curve] |
| COC(=O)c1ccc(/C=N/Nc2nc3ccccc3[nH]2)cc1 | – | inconclusive: 2.82 µM [inhibitor, full curve] |
| Cc1ccc(O)c(NC(=O)CCS(=O)(=O)c2nc(-c3cccs3)cc(C(F)(F)F)n2)c1 | – | inconclusive: 12.6 µM [inhibitor, partial curve] |
| CCN(CC)c1ccc(C(=O)NN)cc1 | – | inconclusive: 11.1 µM [inhibitor, partial curve] |
| Oc1ccc(N2CCN(C(=S)NCCc3ccccc3)CC2)cc1 | – | active: 25.1 µM |
| Cc1cccc(NC(=O)Nc2cccs2)c1C | – | inconclusive: 11.2 µM [inhibitor, partial curve] |
| CCn1c(=O)c(C(=O)CN2c3ccccc3CC2C)c(N)n(Cc2ccccc2)c1=O (stereo not given) | – | inconclusive: 15.7 µM [inhibitor, partial curve] |
| COc1cc(/C=N/N2C(=O)c3ccccc3NC2(C)c2cccc([N+](=O)[O-])c2)cc(Br)c1O (stereo not given) | – | inconclusive: 44.3 µM [inhibitor, single point] |
| COC(=O)C1=C(C)N(CCc2ccccc2)C(=O)C1(NS(=O)(=O)c1ccc(NC(C)=O)cc1)C(F)(F)F (stereo not given) | – | inconclusive: 3.55 µM [inhibitor, partial curve] |
| COc1cccc(NC(=O)C(=O)NCc2ccncc2)c1 | inactive: -1.57% | – |

| Compound | activity change, negative = inhibition | Potency |
| --- | --- | --- |
| Cc1cc(NN)nc(NS(=O)(=O)c2ccccc2)n1 | – | inconclusive: 25.1 µM [inhibitor, partial curve] |
| COc1cc(/C=C2/C(=O)NN(c3ccccc3)C2=O)cc(Br)c1O | – | inconclusive: 50.1 µM [inhibitor, single point] |
| O=C1CCC2(CC1)NC(=O)N(c1ccccc1)N2 | – | inconclusive: 10 µM [inhibitor, partial curve] |
| S=C(NCCN1CCOCC1)Nc1ccc(Nc2ccccc2)cc1 | – | inconclusive: 10 µM [inhibitor, partial curve] |
| COc1cc(CNc2ccc(O)cc2)cc(Br)c1OCc1ccccc1 | – | inconclusive: 5.62 µM [inhibitor, single point] |
| COc1ccc(-c2cc(C(=O)NN)[nH]n2)cc1OC | – | inconclusive: 28 µM [inhibitor, single point] |
| C/C(=N/N1CCN(c2ccccn2)CC1)c1ccc([N+](=O)[O-])cc1 | – | inconclusive: 3.16 µM [inhibitor, full curve] |
| CC(=O)Nc1ccc2c(c1)OCO2 | inactive: -13.7% | – |
| CCCc1c(C(=O)NNc2cccc(Cl)c2)cnn1-c1ccccc1 | – | inconclusive: 12.6 µM [inhibitor, partial curve] |
| CCOC(=O)Cc1csc(NC(=O)NC2(C(F)(F)F)Oc3cc(Cl)c(Cl)cc3O2)n1 | – | active: 8.84 µM |
| Cc1cc(SCC(=O)c2ccc3c(c2)OCO3)nc2ccccc12 | inactive: 3% | – |
| O=C(O)CC1=C(O)C(=O)N(c2ccccc2)C1c1ccccc1 (stereo not given) | – | inconclusive: 44.7 µM [inhibitor, partial curve, poor fit] |
| Cc1cn(S(=O)(=O)c2ccc(Br)cc2)cn1 | – | inconclusive: 5.58 µM [inhibitor, single point] |
| COc1ccc(C2=Nc3cccc4cccc(c34)N2)cc1 | – | inconclusive: 19.8 µM [activator, single point] |
| NS(=O)(=O)c1ccc(N/N=C/c2ccc[nH]2)c([N+](=O)[O-])c1 | – | inconclusive: 7.94 µM [inhibitor, full curve] |
| O=C(Nc1cccc(Br)c1)N1CCC(CN2CCCCCC2)CC1 | inactive: 5.91% [at 76.3 µM] | – |
| CN1C(=O)/C(=C/C=C2/CCCN2C)N(C)C1=S | – | inconclusive: 28.2 µM [inhibitor, single point] |
| N#Cc1nc(-c2ccccc2F)oc1NCc1cccc2c1OCO2 | – | inconclusive: 31.6 µM [inhibitor, single point] |
| CCn1ncc(C(=O)Nc2ccc(S(=O)(=O)N3CCCC3)cc2)c1C | – | inconclusive: 11.1 µM [activator, partial curve, poor fit] |
| O=C(CN1CCN(c2ccccc2O)CC1)NC(c1ccccc1)c1ccccc1 | – | inconclusive: 31.6 µM [inhibitor, partial curve] |
| CCN(CC)c1ccc(/C=N/N2CCN(Cc3ccccc3Cl)CC2)cc1 | – | inconclusive: 44.7 µM [inhibitor, single point] |
| O=C(O)CCC(NC(=S)Nc1ccccc1)C(=O)O (stereo not given) | – | inconclusive: 14 µM [inhibitor, partial curve] |
| O=C(NNS(=O)(=O)c1ccc(Cl)cc1)c1cnn(-c2ccccc2)c1-n1cccc1 | – | inconclusive: 31.6 µM [inhibitor, single point] |
| COc1ccc(C(=O)NNC(=S)NC(=O)c2cccnc2)cc1 | – | active: 39.5 µM |

| Compound | activity change, negative = inhibition | Potency |
| --- | --- | --- |
| CN1CCc2nc3sc(C(=O)C45CC6CC(CC(C6)C4)C5)c(N)c3cc2C1 | – | inconclusive: 24.9 µM [activator, partial curve] |
| NC(=O)c1c(NC(NC(=O)c2ccco2)C(=O)c2ccc(Cl)cc2)sc2c1CCCC2 (stereo not given) | inactive: -0.576% | – |
| N#C/C(=N\Nc1cccc2ccccc12)c1nnc2n1CCCCC2 | – | inconclusive: 15.8 µM [inhibitor, partial curve] |
| COc1cc(Cl)ccc1NC(=O)COc1ccccc1C(=O)N1CCN(c2ccc(O)cc2)CC1 | – | active: 17.6 µM |
| Cc1cc(C)c2c(N)c(C(=O)NN)sc2n1 | – | inconclusive: 44.7 µM [inhibitor, single point] |
| CC(C)Sc1ncc(Cl)c(C(=O)N(Cc2ccc(N(C)C)cc2)C2CCS(=O)(=O)C2)n1 (stereo not given) | inactive: -17.7% [at 76.3 µM] | – |
| CN(C)c1nn(C(=O)Nc2ccc(Cl)cc2Cl)cc1-c1ccccc1 | inactive: 3.75% | – |
| COc1ccc2nc3cccc(OC)c3nc2c1 | inactive: -5.31% | – |
| CC(C)CCN1NC2(CCCC(C)C2)NC1=S (stereo not given) | – | inconclusive: 28 µM [inhibitor, single point] |
| S=C(NNC(=S)NC1CC2CCC1C2)NC1CC2C=CC1C2 (stereo not given) | – | inconclusive: 9.92 µM [inhibitor, partial curve] |
| COC(=O)C/C(C)=N/Nc1ccc(S(=O)(=O)N2CCCC2)cc1[N+](=O)[O-] | – | inconclusive: 22.4 µM [inhibitor, partial curve] |
| CN(C)Cc1cc(C(C)(C)C)c(O)c(C(C)(C)C)c1 | – | inconclusive: 14 µM [inhibitor, partial curve] |
| CC(=O)C(Sc1nc(N(C)C)nc(N(C)C)n1)C(=O)Nc1ccccc1 (stereo not given) | – | active: 20 µM |
| COC(=O)/C(=N/Nc1ccc(C)cc1)N1CCCc2ccccc21 | – | inconclusive: 22.4 µM [inhibitor, partial curve] |
| COc1ccc(OC)c(/C=N/NC(=O)CC2C(=O)NN=C2C)c1 (stereo not given) | – | inconclusive: 17.6 µM [inhibitor, partial curve] |
| COc1ccc(/C(=N\Nc2ccccc2C(=O)O)c2ccccc2)cc1 | – | inconclusive: 8.91 µM [inhibitor, full curve] |
| Cc1ccc(/C=C2/NC(=O)N(Cc3ccccc3F)C2=O)o1 | inactive: -15.9% | – |
| COc1ccccc1N1CCN(/N=C/c2ccc(O)c(O)c2)CC1 | – | active: 2.8 µM |
| CN/S(=N/S(=O)(=O)c1ccccc1)c1ccc(C)cc1 (stereo not given) | inactive: -4.78% | – |
| CC(C)=N/N=C(\N)SCc1ccccc1 | – | inconclusive: 28.2 µM [inhibitor, single point] |
| CCN1/C(=C2\C(=O)N(C)C(=S)N2c2ccccc2)C=Cc2ccccc21 | – | inconclusive: 28.2 µM [inhibitor, partial curve] |
| O=C(NC(=S)Nc1ccc2c(c1)OCCO2)c1ccccc1 | – | inconclusive: 39.5 µM [inhibitor, single point] |
